Experimental data from PubChem BioAssay AID1671189 (National Center for Advancing Translational Sciences (NCATS), 2021).
Screen size: about 1,100 compounds; about 70 (6%) were called active. Not shown: some 22% with an inconclusive outcome. Calls follow the shape of the dose curve; as a rule, active = well fitted curve in the direction sought with a large enough effect; inconclusive = small, poorly fitted or top-dose-only effect, or another doubt; inactive = no such curve, though single readings can be large or run the other way. Some of the results follow.

molecular target: Polyunsaturated fatty acid lipoxygenase ALOX12 (Homo sapiens) (UniProt P18054); experiment: Confirmatory qHTS assay for inhibitors of human arachidonate 12S-lipoxygenase (ALOX12): Round 2; details: purified human 12-LOX, xylenol orange absorbance; series mostly up to 125 µM; activity change, negative = inhibition: at the top concentration
How it was run: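 Purified human enzyme (150 nM) in 25 mM Hepes, 0.01% Triton X-100, pH 7.0, preincubated 15 min with compound, then 40 uM arachidonic acid for 30 min at room temperature. Hydroperoxide detected by Fe-XO, read as 573/405 nm absorbance ratio.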
% is scaled to controls: 0 for no effect and ±100 for the full control effect; potency is read from the fitted curve at half-maximal effect.

Sequence of UniProt P18054 (P18054 whole entry, looked up): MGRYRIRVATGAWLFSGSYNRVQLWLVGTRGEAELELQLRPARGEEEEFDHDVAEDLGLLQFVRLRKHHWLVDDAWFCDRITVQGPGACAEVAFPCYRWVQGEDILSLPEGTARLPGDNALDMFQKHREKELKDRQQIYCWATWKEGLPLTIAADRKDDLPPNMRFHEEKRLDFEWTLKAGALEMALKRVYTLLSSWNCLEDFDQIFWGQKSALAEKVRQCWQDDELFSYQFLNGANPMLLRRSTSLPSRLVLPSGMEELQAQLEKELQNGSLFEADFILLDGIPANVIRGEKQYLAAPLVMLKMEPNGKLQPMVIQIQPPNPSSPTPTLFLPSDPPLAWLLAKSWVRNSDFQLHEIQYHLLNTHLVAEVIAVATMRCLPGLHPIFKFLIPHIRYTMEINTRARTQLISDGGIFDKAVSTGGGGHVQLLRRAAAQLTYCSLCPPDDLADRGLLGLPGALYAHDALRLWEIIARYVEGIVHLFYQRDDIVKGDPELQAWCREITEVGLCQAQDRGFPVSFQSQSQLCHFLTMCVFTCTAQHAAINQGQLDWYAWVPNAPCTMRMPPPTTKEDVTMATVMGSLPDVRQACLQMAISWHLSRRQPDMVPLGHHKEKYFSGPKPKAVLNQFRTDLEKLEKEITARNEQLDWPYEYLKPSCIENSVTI

Activity change, negative = inhibition, inactive:
Cc1ccccc1Nc1n[nH]c(C(O)c2ccc3c(c2)CCO3)n1 (configuration not stated) 16.1% [at 64.5 µM]
O=C1NCc2ccccc2CC12CCCN(CCCc1ccccc1)C2 (configuration not stated) -17.1%
NCc1cccc(-c2ccc(F)cc2F)c1 -12.5%
CC[C@@H](Nc1ncnc2c1CN(C1CCCNCC1)C(=O)CN2C)c1ccccc1 (some centres not stated) -3.89%
CC(C)C(=O)N1CCCC2(Cc3ccccc3CN2[S+](=O)([O-])c2ccccc2)C1 (configuration not stated) -28.5%
CCOC(=O)C1CC1CN1CCCC2(Cc3ccccc3CNC2=O)C1 (configuration not stated) -27.1%
COc1ccc(OC2CN(Cc3cccc4ccccc34)C2)cc1 -3.44%
COc1ccc(F)cc1-c1ccccc1C=O -11.1%
COc1ccc(CN2CC[C@H](c3nnc(-c4ccccc4)o3)C2)cc1 5.7% [at 64.5 µM]
O=C(Nc1ccccc1)N1CCC(c2nnc3n2CCNC3)CC1 -23.8%
O=C(c1cc(C2CC2)nc2onc(C3CCCN3)c12)N1CCOCC1 (configuration not stated) -10.3%
Cc1ccc(-c2cc(N3CCC(CNC(=O)c4ccc5nc[nH]c5c4)CC3)n[nH]2)cc1 1.03% [at 64.5 µM]
O=C(NC1CCCC1)c1cc(C2CC2)nc2onc(C3CCCN3)c12 (configuration not stated) 0.298%
CN1CC(=O)N(C2CCNCC2)Cc2c1ncnc2N(C)Cc1ccc(F)cc1 -28.3%
COc1ccccc1CNc1ncnc2c1CN(C1CCCNC1)C(=O)CN2C (configuration not stated) -14.6%
CCc1nc2c(c(-c3ccc(OC)cc3)n1)CN([S+](=O)([O-])c1c(C)noc1C)CC2 -26.9%
COCC(=O)N1CCN(C)CC1C(=O)N1CCc2nc[nH]c2C1 (configuration not stated) 14.9% [at 64.5 µM]
NCc1cccc(-c2ccsc2)c1 -8.06%
COc1ccccc1-c1cccc(CN)c1 20.5% [at 233 µM]
CN1CC(=O)N(C2CCCNC2)Cc2c(NCCCc3ccccc3)ncnc21 (configuration not stated) -23.2%
CC(=O)NCC(=O)N1Cc2ccccc2CC2(CCCN(CC3CCNC3)C2)C1 (configuration not stated) -9.94%
CCc1ccc(CN2CCC3(CC2)Cc2ccccc2CNC3=O)s1 -18.4%
CN1CC(=O)N(C2CCCNC2)Cc2c1ncnc2N1CCSCC1 (configuration not stated) -0.186%
COc1ccc(-c2cc(C(=O)NC3CC3)c3c(C)nn(-c4ccccc4)c3n2)cc1 -19.6%
CNCc1ccncc1 -12% [at 233 µM]
Cc1ccc2nc(NC(=O)C3CC(=O)N(c4n[nH]c5cccc(F)c45)C3)sc2c1 (configuration not stated) -20% [at 64.5 µM]
Cn1cnc(C(=O)N2[C@@H]3CC[C@H]2CC(NC(=O)c2ccncc2)C3)c1 (some centres not stated) 14% [at 64.5 µM]
Fc1ccc(C2Cn3nnc(-c4nc(-c5ccc(F)c(F)c5)no4)c3CO2)cc1 (configuration not stated) 2.23% [at 64.5 µM]
O=C1NC2(Cc3ccccc31)CN(C(=O)c1ccc3c(c1)OCO3)C2 -19.5%
OCC1CN(c2ncccn2)CC12CCN(Cc1cccc3[nH]ccc13)CC2 (configuration not stated) -5.1% [at 64.5 µM]
Cc1nc(-c2cccc(NC(=O)N[C@H](C)c3onc(C)c3C(=O)O)c2)no1 -5.34% [at 64.5 µM]
COCc1cn(C[C@H]2C[C@@H](NC(=O)Nc3cccnc3)[C@H](O)[C@@H]2O)nn1 -8.27% [at 64.5 µM]
O=C1NC2(Cc3ccccc31)CN(C(=O)c1cccc3c1OC(F)(F)O3)C2 -9.79%
c1ccc(-n2cc(CN3CCCN(Cc4cccs4)CC3)nn2)cc1 7.68% [at 64.5 µM]
COc1ccc(CN2CCCC23Cc2ccccc2CNC3=O)cc1OC (configuration not stated) -7.9%
O=C(c1ccc(-c2ncc3cnc(-c4cccc(F)c4)cn23)cc1)N1CC(O)C1 -28.1% [at 64.5 µM]
CN1CC(=O)N(c2ccccc2F)Cc2c(NC3CCNCC3)ncnc21 -12.6%
COc1cccc(N2C(=O)NC(=NC3CCCCC3)C23CCN(CC2CC2)CC3)c1 -9.03%
COc1ccc(-c2cc(C(=O)NCC3CC3)c3c(C4CCNC4)noc3n2)cc1 (configuration not stated) -23%
COC(=O)[C@@H]1Cc2ncn(Cc3ccc(OC)cc3)c2CN1CCCc1ccccc1 14.5%
COc1ccc(-c2nc(C3CC3)nc3c2CCN(C(=O)c2ccc(C(F)(F)F)cc2)CC3)cc1 -23.3%
O=C1CO[C@H]2CN(C3CCC3)C[C@H]2N1Cc1ccc(F)cc1 2.06% [at 64.5 µM]
NCC(C1CCCCC1)N1CCCC1 (configuration not stated) 3.96% [at 233 µM]
CCN1CCCC2(Cc3ccccc3CN(C(=O)c3ccccc3)C2)C1 (configuration not stated) -11.8%
CCCC(=O)N1Cc2ccccc2CC2(CCCN(C)C2)C1 (configuration not stated) -21.2%
CCC(=O)N1Cc2ccccc2CC2(CCN(Cc3ccncc3)CC2)C1 1.87%
O=C(N1CCCCC1)N1CCN(c2ccc(Cl)nn2)C(=O)C1 -27.3%
O=Cc1ccc(-c2ccc(F)cc2)cc1 -27.9% [at 233 µM]
Cc1ccc(C(=O)N2CCC(N3Cc4ccccc4C3=O)CC2)cc1 -0.341%
O=C(c1ccccc1F)N1CCn2c(nnc2C2CCNCC2)C1 -11.9%
CN1CCC(C(=O)N2Cc3ccccc3CC3(CCCN(CC4CCNCC4)C3)C2)CC1 (configuration not stated) -15.7%
COc1ccccc1C(O)c1nc(Nc2ccc(C(C)C)cc2)n[nH]1 (configuration not stated) 28.8% [at 64.5 µM]
Cc1nn2c(c1-c1cccnc1N1CCOCC1)N(CC1CC1)CCC2 12.4% [at 64.5 µM]
COC(=O)[C@@H]1Cc2nc[nH]c2CN1Cc1ccc(C)cc1 43.8% [at 233 µM]
Cn1nc(C2CCCN2)c2c(C(=O)NCc3cccs3)cc(C3CC3)nc21 (configuration not stated) -15.3%
O=C(c1ccccc1)N1CCCC2(CC(c3cccc(C(F)(F)F)c3)=NO2)C1 (configuration not stated) -21%
Cc1cc(C)n(C2CN(c3cc(C4CC(O)C4)nc(C)n3)C2)n1 (configuration not stated) 8.32% [at 64.5 µM]
COCCNC(=O)c1cc(C)nc2onc(C3CCNC3)c12 (configuration not stated) -16.4%
O=C(c1ccncc1)N1CCCC(c2nnc3n2CCNC3)C1 (configuration not stated) -17.5%
O=Cc1ccccc1-c1ccc(OC(F)(F)F)cc1 -10.5% [at 233 µM]
NCc1ccc(-c2ccc(F)cc2)cc1 0.628%
O=C(Cc1ccccc1)NCc1nnc2n1C(C(=O)O)CC2 (configuration not stated) -14.1%
Nc1ccccc1CN1CCCC2(Cc3ccccc3CNC2=O)C1 (configuration not stated) -0.411%
NCCC(=O)N1CCC2(CC1)CN(C(=O)Cc1ccc(Cl)cc1)CCO2 -12.1%
CCC(=O)NC(c1ccco1)c1cc(Cl)c2cccnc2c1OC (configuration not stated) 10.7% [at 64.5 µM]
CC(C)CN1CCC(c2nc3ccc(F)cc3c(=O)[nH]2)CC1 -26%
O=C(OCC#CCSc1nnc(-c2cccc3ccccc23)o1)c1ccc(F)cc1 -16.4% [at 64.5 µM]
Cn1cc(CN[C@H]2[C@H](O)[C@H](O)C[C@@H]2c2ccccc2)c2ccccc21 -9.34% [at 64.5 µM]
COCCNC(=O)c1cc(C2CC2)nc2onc(C3CCCN3)c12 (configuration not stated) -17.5%
Cc1ccc(CN2CCC3(Cc4ccccc4CNC3=O)C2)cc1C (configuration not stated) -25.3%
Cc1cc(C(=O)N2CCOCC2)c2c(C3CCNCC3)noc2n1 -16.5%
COC(=O)[C@H](c1ccccc1Cl)N1CCc2sccc2C1 -3.69%
Cc1cc(Cl)ccc1-c1ccccc1CN -6.92%
CN1CC(=O)N(C2CCCNCC2)Cc2c1ncnc2N1CCCC(CO)C1 (configuration not stated) -7.7%
COc1cccc([S+](=O)([O-])N2CCn3c(nn(-c4ccc(Cl)cc4)c3=O)C2)c1 -7.73%
CN1CC(=O)N(C2CCNCC2)Cc2c(NC3CCCCC3O)ncnc21 (configuration not stated) -12.2%
COCCCNc1nc2c(S(=O)(=O)c3c(C)cc(C)cc3C)nnn2c2ccccc12 -28.1%
COc1ccc(-c2cc(C(=O)NC3CC3)c3c(C4CCNCC4)noc3n2)cc1 -20.3%
CN1CCCC1CCNc1nccc(-c2cnn(-c3ccc(F)cc3)c2)n1 (configuration not stated) 2.07% [at 64.5 µM]
Cc1ccccc1N(C)C1CN(C(=O)OC(C)(C)C)C1 -11.2%
O=C1CCN(C(=O)[C@@H]2CCCN2Cc2ccc(C(F)(F)F)cc2)CCCCCCN1 0.301% [at 64.5 µM]
CN(c1ccccc1)C1CNC1 -27.1% [at 233 µM]
Cc1ccsc1CN1CCC2(Cc3ccccc3CNC2=O)C1 (configuration not stated) -17.9%
CC(C)C[C@@H](N)C(=O)O -4.33%
O=C1Nc2ccccc2CC12CN(CC1CCCC1)C2 13.7%
CN1CC(=O)N(C2CCCNCC2)Cc2c(NCc3cccc(Cl)c3)ncnc21 (configuration not stated) -4.28%
CN1CC(=O)N(C2CCCNCC2)Cc2c1ncnc2N1CCCCC1 (configuration not stated) -11.5%
COc1ccc(CNc2ncnc3c2CN(C2CCNCC2)C(=O)CN3C)cc1 -18.4%
O=C1Nc2ccccc2C12CCN(S(=O)(=O)c1ccccc1)C2 (configuration not stated) -17.9%
CCCNC(=O)[C@@H]1Cc2c[nH]c3cccc(c23)[C@H](CC(C)C)N1 21.6% [at 64.5 µM]
CC(Cc1ccncc1)Nc1nccc(-c2cnn(-c3ccccc3F)c2)n1 (configuration not stated) 10.8% [at 64.5 µM]
CNc1ncc(-c2cccc3ccccc23)o1 -20.5% [at 64.5 µM]
CC(C)Nc1oc(-c2cccc3ccccc23)nc1C#N 11.9% [at 64.5 µM]
O=C(c1ccccc1)N1CCC2(CC1)C(=O)NCN2C(=O)CCCN1CCCC1 -14%
CNC(C)c1cccc(F)c1 (configuration not stated) -12.5% [at 233 µM]
CN1CC(=O)N(C2CCCNCC2)Cc2c1ncnc2N1CCSCC1 (configuration not stated) -4.95%
COc1ccc(NCCN2CCCC2)cc1 -43.3% [at 233 µM]
CN1CC(=O)N(C2CCCNCC2)Cc2c(NCCc3ccccc3F)ncnc21 (configuration not stated) -17.6%
O=C(N1CCCC1)N1CCN(c2ccc(Cl)nn2)C(=O)C1 -25.5%
O=C1NC(=NC2CCCC2)C2(CCCN([S+](=O)([O-])c3cccc(C(F)(F)F)c3)C2)N1c1cc(F)cc(F)c1 (configuration not stated) -17.6%
CCc1nc2c(c(-c3ccc(OC)cc3)n1)CN([S+](=O)([O-])c1cccc(OC)c1)CC2 -23%
FC(F)(F)c1ccc(N2C3CCC2CN(CC2CCCC2)C3)cc1 -12.6%
CN(C)C[C@H]1O[C@@H](CO)[C@@H](O)[C@H]1N1CCN(c2ccc(F)cc2)CC1 -16.2% [at 64.5 µM]
CN1CC(=O)N(C2CCCNC2)Cc2c1ncnc2N1CCc2ccccc2C1 (configuration not stated) 2.77%
CN1CC(=O)N(C2CCCNCC2)Cc2c(NCC3CC3)ncnc21 (configuration not stated) -7.12%
Cc1ccc(-c2cccc(CN)c2)c(C)c1 -12.4%
O=C1COCC2(CN1Cc1ccccc1)CN(c1cccnc1)C2 158% [at 64.5 µM]
COc1cccc(C(=O)N2CCOC[C@H](Oc3ccccc3)C2)c1 16.7% [at 64.5 µM]
CCOCCCNc1ncnc2c1CN(C1CCCNCC1)C(=O)CN2C (configuration not stated) -3.49%
CC(C)Cc1ccc(S(=O)(=O)N2CCCC(Cn3cnc4cccnc43)C2)cc1 (configuration not stated) 19.7% [at 64.5 µM]

Potency, active:
C=CCn1cc(CN(Cc2ccco2)Cc2cccs2)c(C)n1 10 µM
CCOC(=O)Cn1c(=O)n(-c2ccccc2OC)c2nc(-c3ccccc3F)nc(C(N)=O)c21 11 µM
